Test results reported in patent US8188081B2, “Methods of treating inflammation using prokineticin 1 receptor antagonists” (Janssen Pharmaceutica, NV, priority 2005, dated 2012).

System: rat ileum mucosa

B1: PK1: recombinant human Prokineticin 1 expressed in HEK 293 cells, FLAG tag cleaved; mixture of full-length and four C-terminal residue truncated product (protein, UniProt P58294 20-105, looked up)
Prokineticin-1: AVITGACERDVQCGAGTCCAISLWLRGLRMCTPLGREGEECHPGSHKVPFFRKRKHHTCPCLPNLLCSRFPDGRYRCSMDLKNINF
modifications: mixture with C-terminal 4-residue truncated form
notes: recombinant human Prokineticin 1 expressed in HEK 293 cells, FLAG tag cleaved; mixture of full-length and four C-terminal residue truncated product
- concentration at which the maximal PK1-evoked response occurred: 100 nM
- effect on tissue conductance (G): no significant effect
- increase in Isc from baseline (100 nM PK1, n=42 tissues from 29 rats): 28.7+/−2.9 μA/cm2
- time to peak Isc after single-dose addition (basolateral addition): 2 to 4 min
- change in Isc on addition to the mucosal tissue surface (mucosal (apical) addition, FIG. 2B): failed to evoke a change in Isc
